Tested on: NCI-H322M
Conditions: 48-hour incubation; for CC50: read-out: LC50, NCI-H322M, Lung cancer

Row | SMILES | GI50 | CC50
1 | Nc1ccn(C2CCC(COP(=O)(O)OCC(O)COP(=O)(O)OCC3OC(n4cc(F)c(=O)[nH]c4=O)CC3O)O2)c(=O)n1 (racemic) [NSC 704533, 2′,3′-didesoxycytidylyl-(5′→1)-racglycerylyl-(3→5′)-5-fluoro-2′-desoxyuridine] | 1.95 µM | > 100 µM
2 | CCCCCCCCCCCCCCCCCCOC(COP(=O)(O)OCC1OC(n2cc(F)c(=O)[nH]c2=O)CC1O)COP(=O)(O)OCC1OC(n2ccc(N)nc2=O)C(O)C1O (racemic) [NSC 698688-A/1, arabinocytidylyl-(5′→1)-2-O-octadecyl-rac-glycerylyl-(3→5′)-5-fluoro-2′-deoxyuridine] | 35.6 µM | > 100 µM
